# Measurements taken from PMC12820563, “FoxP3 forms a head-to-head dimer in vivo and stabilizes its multimerization on adjacent microsatellites”.
# This is one part of the list.
# Target: T1, MBP-FoxP1dN (Mus musculus, UniProt P58462 326-579)
# T1 sequence: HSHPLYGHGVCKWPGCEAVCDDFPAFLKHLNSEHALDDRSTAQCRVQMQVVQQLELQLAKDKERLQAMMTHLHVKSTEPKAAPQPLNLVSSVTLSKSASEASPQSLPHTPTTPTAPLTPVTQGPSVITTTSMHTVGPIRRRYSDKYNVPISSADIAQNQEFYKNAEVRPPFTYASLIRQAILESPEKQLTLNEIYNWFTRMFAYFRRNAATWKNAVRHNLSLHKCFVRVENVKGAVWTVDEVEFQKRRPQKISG
# Assay: PD-seq (MBP pull-down with sequencing); 20 mM Tris-HCl pH 7.5, 100 mM NaCl, 1.5 mM MgCl2, 0.4 uM protein, 0.1 uM dsDNA library, 30 min, room temperature, amylose pull-down; high values mean tight binding
# Conditions: protein: recombinant; tags: His6-MBP; chain copies: 2; dsDNA, one strand shown
# In short: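 Binding is the reads-per-million enrichment of pull-down relative to input, pooled across replicates. For this, 0.4 µM His6-MBP-tagged mouse FoxP3 or FoxP1 fragment lacking the N-terminus, made in E. coli, was incubated with 0.1 µM Klenow-filled double-stranded degenerate DNA library for 30 min at room temperature in Tris pH 7.5 buffer with NaCl and MgCl2. Complexes bound to amylose resin were washed three times before proteinase K released the DNA for PCR barcoding and Illumina sequencing.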
row,Sequence,binding signal
1,GATGATTGTTCTCCCAGCTGATGAATTGCCACCATCGAGTAAACAAATTTTCCTAATCTTTCTGTTCAAGCGCCATCTAC,1.14 RPM ratio (pull-down/input)
2,GATGATTGTTCTCCCAGCTGATGAATTTTTAGCATCGAGTAAACAAATTTTCCTAATCTTTCTGTTCAAGCGCCATCTAC,1.3 RPM ratio (pull-down/input)
3,GATGATTGTTCTCCCAGCTGATGAATTTCAGATTTCGAGTAAACAAATTTTCCTAATCTTTCTGTTCAAGCGCCATCTAC,0.843 RPM ratio (pull-down/input)
4,GATGATTGTTCTCCCAGCTGATGAATTTTTGTTTTCGAGTAAACAAATTTTCCTAATCTTTCTGTTCAAGCGCCATCTAC,2.71 RPM ratio (pull-down/input)
5,GATGATTGTTCTCCCAGCTGATGAATTGAGAGCGTCGAGTAAACAAATTTTCCTAATCTTTCTGTTCAAGCGCCATCTAC,0.847 RPM ratio (pull-down/input)
6,GATGATTGTTCTCCCAGCTGATGAATTTCGCCGGTCGAGTAAACAAATTTTCCTAATCTTTCTGTTCAAGCGCCATCTAC,0.75 RPM ratio (pull-down/input)
7,GATGATTGTTCTCCCAGCTGATGAATTCTATACCTCGAGTAAACAAATTTTCCTAATCTTTCTGTTCAAGCGCCATCTAC,0.916 RPM ratio (pull-down/input)
8,GATGATTGTTCTCCCAGCTGATGAATTCCGTTTGTCGAGTAAACAAATTTTCCTAATCTTTCTGTTCAAGCGCCATCTAC,1.06 RPM ratio (pull-down/input)
9,GATGATTGTTCTCCCAGCTGATGAATTGTCAGATTCGAGTAAACAAATTTTCCTAATCTTTCTGTTCAAGCGCCATCTAC,0.966 RPM ratio (pull-down/input)
10,GATGATTGTTCTCCCAGCTGATGAATTTCGTGTATCGAGTAAACAAATTTTCCTAATCTTTCTGTTCAAGCGCCATCTAC,1.15 RPM ratio (pull-down/input)
11,GATGATTGTTCTCCCAGCTGATGAATTCCCTCACTCGAGTAAACAAATTTTCCTAATCTTTCTGTTCAAGCGCCATCTAC,0.853 RPM ratio (pull-down/input)
12,GATGATTGTTCTCCCAGCTGATGAATTTGCAGTCTCGAGTAAACAAATTTTCCTAATCTTTCTGTTCAAGCGCCATCTAC,0.885 RPM ratio (pull-down/input)
13,GATGATTGTTCTCCCAGCTGATGAATTTTGGCGATCGAGTAAACAAATTTTCCTAATCTTTCTGTTCAAGCGCCATCTAC,0.955 RPM ratio (pull-down/input)
14,GATGATTGTTCTCCCAGCTGATGAATTGCTCTTATCGAGTAAACAAATTTTCCTAATCTTTCTGTTCAAGCGCCATCTAC,1.17 RPM ratio (pull-down/input)
15,GATGATTGTTCTCCCAGCTGATGAATTTTACACCTCGAGTAAACAAATTTTCCTAATCTTTCTGTTCAAGCGCCATCTAC,0.864 RPM ratio (pull-down/input)
16,GATGATTGTTCTCCCAGCTGATGAATTCCATTAGTCGAGTAAACAAATTTTCCTAATCTTTCTGTTCAAGCGCCATCTAC,0.857 RPM ratio (pull-down/input)
17,GATGATTGTTCTCCCAGCTGATGAATTCTCTTGATCGAGTAAACAAATTTTCCTAATCTTTCTGTTCAAGCGCCATCTAC,0.905 RPM ratio (pull-down/input)
18,GATGATTGTTCTCCCAGCTGATGAATTCATGTCATCGAGTAAACAAATTTTCCTAATCTTTCTGTTCAAGCGCCATCTAC,1.3 RPM ratio (pull-down/input)
19,GATGATTGTTCTCCCAGCTGATGAATTCGCCACCTCGAGTAAACAAATTTTCCTAATCTTTCTGTTCAAGCGCCATCTAC,0.846 RPM ratio (pull-down/input)
20,GATGATTGTTCTCCCAGCTGATGAATTCACTGTGTCGAGTAAACAAATTTTCCTAATCTTTCTGTTCAAGCGCCATCTAC,0.907 RPM ratio (pull-down/input)

row,Sequence,binding signal
1,GATGATTGTTCTCCCAGCTGATGAATTACTTTACTCGAGTAAACAAATTTTCCTAATCTTTCTGTTCAAGCGCCATCTAC,1.04 RPM ratio (pull-down/input)
2,GATGATTGTTCTCCCAGCTGATGAATTACCTTCGTCGAGTAAACAAATTTTCCTAATCTTTCTGTTCAAGCGCCATCTAC,0.952 RPM ratio (pull-down/input)
3,GATGATTGTTCTCCCAGCTGATGAATTTATGCAATCGAGTAAACAAATTTTCCTAATCTTTCTGTTCAAGCGCCATCTAC,1.56 RPM ratio (pull-down/input)
4,GATGATTGTTCTCCCAGCTGATGAATTAAAAGCTTCGAGTAAACAAATTTTCCTAATCTTTCTGTTCAAGCGCCATCTAC,0.91 RPM ratio (pull-down/input)
5,GATGATTGTTCTCCCAGCTGATGAATTGTTGTGGTCGAGTAAACAAATTTTCCTAATCTTTCTGTTCAAGCGCCATCTAC,2.1 RPM ratio (pull-down/input)
6,GATGATTGTTCTCCCAGCTGATGAATTAGAACGTTCGAGTAAACAAATTTTCCTAATCTTTCTGTTCAAGCGCCATCTAC,0.917 RPM ratio (pull-down/input)
7,GATGATTGTTCTCCCAGCTGATGAATTGCCGGCATCGAGTAAACAAATTTTCCTAATCTTTCTGTTCAAGCGCCATCTAC,1.12 RPM ratio (pull-down/input)
8,GATGATTGTTCTCCCAGCTGATGAATTAATAGAGTCGAGTAAACAAATTTTCCTAATCTTTCTGTTCAAGCGCCATCTAC,0.852 RPM ratio (pull-down/input)
9,GATGATTGTTCTCCCAGCTGATGAATTGCTGATTTCGAGTAAACAAATTTTCCTAATCTTTCTGTTCAAGCGCCATCTAC,1.31 RPM ratio (pull-down/input)
10,GATGATTGTTCTCCCAGCTGATGAATTGTATCGGTCGAGTAAACAAATTTTCCTAATCTTTCTGTTCAAGCGCCATCTAC,1.02 RPM ratio (pull-down/input)
11,GATGATTGTTCTCCCAGCTGATGAATTTTCACTGTCGAGTAAACAAATTTTCCTAATCTTTCTGTTCAAGCGCCATCTAC,0.909 RPM ratio (pull-down/input)
12,GATGATTGTTCTCCCAGCTGATGAATTGTGTACCTCGAGTAAACAAATTTTCCTAATCTTTCTGTTCAAGCGCCATCTAC,1.6 RPM ratio (pull-down/input)
13,GATGATTGTTCTCCCAGCTGATGAATTTATTGAGTCGAGTAAACAAATTTTCCTAATCTTTCTGTTCAAGCGCCATCTAC,1.1 RPM ratio (pull-down/input)
14,GATGATTGTTCTCCCAGCTGATGAATTTCGTTACTCGAGTAAACAAATTTTCCTAATCTTTCTGTTCAAGCGCCATCTAC,0.864 RPM ratio (pull-down/input)
15,GATGATTGTTCTCCCAGCTGATGAATTTCAAGGATCGAGTAAACAAATTTTCCTAATCTTTCTGTTCAAGCGCCATCTAC,0.841 RPM ratio (pull-down/input)
16,GATGATTGTTCTCCCAGCTGATGAATTGCATGTATCGAGTAAACAAATTTTCCTAATCTTTCTGTTCAAGCGCCATCTAC,1.43 RPM ratio (pull-down/input)
17,GATGATTGTTCTCCCAGCTGATGAATTACGCACCTCGAGTAAACAAATTTTCCTAATCTTTCTGTTCAAGCGCCATCTAC,0.919 RPM ratio (pull-down/input)
18,GATGATTGTTCTCCCAGCTGATGAATTTGTATACTCGAGTAAACAAATTTTCCTAATCTTTCTGTTCAAGCGCCATCTAC,2.13 RPM ratio (pull-down/input)
19,GATGATTGTTCTCCCAGCTGATGAATTGGAATATTCGAGTAAACAAATTTTCCTAATCTTTCTGTTCAAGCGCCATCTAC,0.93 RPM ratio (pull-down/input)
20,GATGATTGTTCTCCCAGCTGATGAATTAGTTACATCGAGTAAACAAATTTTCCTAATCTTTCTGTTCAAGCGCCATCTAC,1.13 RPM ratio (pull-down/input)
